Reference: the RNAGym collection of RNA variant scans (doi:10.1093/nar/gkz1192)
The source gives no read counts; variants with many changes may rest on few reads.

B1: CPEB3 Ribozyme (parent)
chain: UAACAGGGGGCCACAGCAGAAGCGUUCACGUCGCAGCCCCUGUCAGAUUCUGGUGAAUCUGCGAAUUCUGCUGUAUAUCUC

Variants of: B1
Experiment: self-cleavage, relative activity (ratio to wild type); higher = more cleavage; in vitro, sequencing
How it was run: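 Relative activity compares each variant's cleaved/total read fraction with that of the unmutated ribozyme. To get these fractions, barcoded CPEB3 ribozyme libraries from rounds of error-prone PCR were transcribed with T7 RNA polymerase for 5 hours at 37°C and then given 15 min of DNase I treatment before EDTA was added. The RNAs were reverse transcribed with template switching and sequenced on Illumina, and DNA sequencing linked barcodes to variants. A minimum of 5 reads applied, and three batches were averaged.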

Variant	self-cleavage
G10C C11U A20G A77U	0.09
G10U A18G G24U U41C A75G U80A	0.04
G10A A28U A65G	0.1
G10U A15G G24A A77U	0.04
G10A C12U A28G A35G C40G C62U	0.04
G10A U49G U72A U78C	0.04
G10A U25C U41C A77G	0.03
G10A A28U C38G U41C A45G U51A	0.05
G10U A21G G33U U78C	0.04
G10A A21G U26C U43C	0.23
G10C C27A A56U A57G U69C	0.07
G10A A28G U67C U72C U76C	0.24
G10A C12A U58C U60G A75G	0.03
G10C A45G U58G	0.19
G10A C12U A28G U67G	0.04
G10C U58C C79U	0.09
G10A G73A A77U	0.56
G10A A35C A47G U60A	0.07
G10C U25C A35C U49A	0.09
G10A U43A U69C	0.06
G10A U25C A35U U43C U74A	0.04
G10A U51G U72C	0.23
G10U A18G U54C	0.16
G10U A15U A45C A64G	0.13

Variant	self-cleavage
G10C A45U U74C	0.17
G10C A45U G73A	0.11
G10A A28G A45G G46A	0.16
G10A A45G U80C	0.06
G10A U41A U67C U80A	0.05
G10A G33A U49C	0.33
G10A G19C G30C C38A U72C U74A	0.02
G10U A28G U31A	0.11
G10A U25C C40U U58C U60C	0
G10U A57G U72C	0.2
G10A A28G A35G U43C U76C	0.09
G10U A20G A45U	0.09
G10U U31C U51C	0.07
G10A A45G C68A	0.07
G10A U25A U26C G46U U49C	0.05
G10C U25C U43C	0.25
G10C A15G U54G A56G A65U	0.07
G10U A18G U54C U74C A75G	0.18
G10C G36A U69A	0.05
G10C U25C U80C	0.09
G10U A35U C38U U66C	0.03
G10C U26A A45C A47U U58C C59U A65G	0.16
G10U G33A U41C U80A	0.06
G10A A57G A65G U66A	0.3

Variant	self-cleavage
G10A A65C U74C	0.14
G10A G24A A56U A64G U66C C81A	0.05
G10U C23U A77G C81A	0.12
G10C A21G A57G U72A	0.04
G10A U43A A64G	0.07
G10A U25C U54C U58A C62A	0.1
G10A C44A A45C U54G A56G	0.17
G10A U25C U26C A57U	0.2
G10A A28U A64U	0.3
G10U A21G U72C	0.04
G10A A47G U54C	0.31
G10C U26C A45G U51C U72C	0.19
G10C U60A U72A	0.13
G10A C29G C79U	0.06
G10U A28U U41C A45U U60A C71U U78A	0.03
G10U G73A U76C	0.36
G10C G33A U69C	0.06
G10A U25C U41C	0.26
G10C U60C U66C U74A U76A	0.05
G10A U48C A64G A65G	0.14
G10A G52A U58C G70U	0.05
G10U C34A A35G G55U U67A	0.04
G10A C32A A35G U54C	0.08
G10A A21U U43A U69A	0.05

Variant	self-cleavage
G10A U31C G70U U72A	0.1
G10A C11U A20G	0.05
G10C A15U U43A A64G U76A	0.29
G10A U41C U49G U54C U60A U69A C71A	0.02
G10C A56G C68A	0.33
G10A U25A A28G C38A U74C U80A	0.04
G10U U26A C29U U31A C39G	0.16
G10U U25C A45C	0.07
G10U A28G A57G U66C	0.03
G10A U26A U54A U60C U69C	0.21
G10A U26C G33A	0.05
G10A U58C A64G	0.16
G10A C34U G52A	0.08
G10A A65G U69A	0.04
G10A C27U G36A U43G	0.11
G10A A45U U60A A64U U69A	0.08
G10A U43C U80C	0.16
G10A A28G U54C U60C G63U U78C	0.06
G10C U31C U72C	0.22
G10C A18G U43A A64G	0.07
G10A U26C A35G U67C	0.14
G10A A21U U41C	0.05
G10A A35U U48C U80C	0.19
G10A G52A U76C	0.4

Variant	self-cleavage
G10C A13C A20G A45G U48C	0.05
G10A U43A U60A U72A A77G	0.05
G10U A47G A57G U80C	0.14
G10U A13U A35G U51A G53U U58C U80C	0.28
G10C U48C A65U A75G	0.01
G10A A64G U66C U72C A75G U80A	0.04
G10A U25C A28G U48C	0.07
G10A C39A U74C	0.27
G10C A20U A65G	0.08
G10A G36U U60C	0.18
G10A U25G A47G U49A U69C U72C	0.04
G10U G22A A47U U78C	0.12
G10A G33A U72C	0.06
G10A U41C A45U U51G	0.17
G10C C40U U67C	0.09
G10A U41C G63U U66A	0.18
G10C A13C U31G U49C A56G	0.12
G10A C40U U72C	0.18
G10C U31G U49C G70A	0.04
G10A C12A C39U U54C U67A	0.05
G10C A15G U43C A45C U66A U67C	0.2
G10U G22U C40U A45U U48C U49A U51A	0.04
G10U A28U U67C	0.1
G10A U26C U80C	0.09

Variant	self-cleavage
G10U A18U A64U	0.06
G10A G24A G73A	0.03
G10A G36C C44A U69C	0.06
G10A U54C A56G U78A	0.06
G10C G19U A20U U72C U78C	0.04
G10A G16C U31C C62U U74C U80A	0.05
G10C A13U A28G U69A	0.14
G10C A57G U69C	0.1
G10A U58C U76C A77U	0.04
G10C U48A U66A U76A	0.11
G10C U25A U41A U60G	0.05
G10A A45U U69C	0.06
G10U A15U U54A	0.21
G10U A13G U25C G33U A47G U49A U78C	0.05
G10A U41G A45G	0.07
G10A U51C A64U	0.11
G10C G16A A35G A57U A65G	0.09
G10A U49A U74C	0.12
G10A U26C U69C A75G U78C	0.07
G10A U25C U49C U67A U72G	0.09
G10A G19U A28U G33A U66C U69C	0.03
G10C A21G U67C	0.28
G10U U41C A57C	0.27
G10A U25C G52C G70A	0.09

Variant	self-cleavage
G10U U26C G30A U49C U51C U72G	0.07
G10C A45G A64G U69C U72A	0.09
G10A U26C C27A U66C	0.03
G10A U58G U78C	0.34
G10A C32U U48C U60G U67C A77G	0.04
G10A U25C G63A	0.19
G10C U31C C34A A64G	0.11
G10C C40U U80C	0.22
G10A A35G A65G	0.25
G10U U31C U49C A56G U80A	0.07
G10A C29A C38U U51C C62U A77U	0.04
G10A U31C C39U G73A A75G U78C	0.04
G10C A15G U26C U66C U69A	0.05
G10C U48C U54A	0.07
G10A C12G U26A U69C A75U U80C	0.01
G10A U25C U31C A57G U60C	0.08
G10U A35G U51A U69A U72A	0.09
G10U A64U U80C	0.49
G10A C23U U48C U78C	0.05
G10C A21G U49A	0.21
G10A C40U A45C A56G	0.08
G10U U25C A28U U69A	0.12
G10C C40U U43C U60A U66C U80C	0.12
